Experimental data taken from the supplement of paper PMC10126150.
Sequences with one replicate were seen in a single cluster, so their values are uncertain.

test system: ATP; test: switch fluorescence ratio, 500 uM ATP over buffer (Cy3 cluster intensity, sum of 5 cycles each) (fold (ratio)); higher = stronger signal-on switching upon ATP binding; sequences stand for … in TCGTCGGCAGCGTCAGATGTGTATAAGAGACAGTTTTTTTTTTTTTTTTTTTTTTTTT…TC; conditions: aptamer strand: ATP DNA aptamer (quencher-CACCTGGGGGAGTATTGCGGAGGAAGG + anchor), 100 nM annealed; ATP concentration: 500 uM; one replicate
Summary of the method: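 Cy3-labelled switching-strand clusters on a modified Illumina MiSeq flow-cell were annealed to 100 nM quencher-labelled ATP aptamer, imaged in selection buffer, then imaged after 15 min with 500 uM ATP at 22 °C. Five buffer/ATP cycles ran, with NaOH stripping and re-annealing between them. The fluorescence ratio is summed target-cycle over summed buffer-cycle Cy3 intensity per cluster, averaged per switch-domain sequence. Clusters outside 100-1000 RFU were excluded.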
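Note: ATP exposure 15 min at 22 °C before imaging.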

Sequence	switch fluorescence ratio
GACTGCCCCA	1.21
ATGAACCGAA	1.02
GCTGGTTGAT	0.999
CAGTTTTTAA	0.99
GGGTGAAAG	0.98
TGCAATTAAG	1.69
GGGGCCAAG	0.982
TTATTTATCT	1.02
ACAATGTATT	1.02
ACCTTCGGAT	1.22
AAAATGGAGC	0.955
TATAGGGTTA	1.02
AATTTATTG	0.982
CCCGCGTCTC	2.29
CTGTATTCTA	0.977
GGGCAGTCTG	1
AGAATATCCG	1.02
TGGGAGTGTG	1.01
ACTATGGCTA	0.986
ACGAGGAGCG	1.01
ATATTAACTA	1.02
TGCTTGATCG	0.978

Sequence	switch fluorescence ratio
GGAGGTTTTG	0.954
ATAATGTA	0.977
TAGTAGATA	1.02
CATTCCTCAC	2.53
TAGGGAGTAA	1.02
ACGGGATGGA	1.05
GCTGAGGGCG	1
CGGGATCGGA	0.991
TCACTGATGT	1.01
GAAAGCAAAC	4.83
TAGGCAAATG	0.995
CGTTTTGAAG	0.992
GTGGACACGA	0.965
CAAGGAGAGA	0.976
TAACGAATTA	1.05
GGCTGGATAT	0.986
TAAGCGTGCA	1.02
TGGATGAGAG	1
GTCGGGATGT	1.02
GTTGAATATC	0.999
TAGTCTGTGT	0.961
AGTAGGTCGT	0.995

Sequence	switch fluorescence ratio
CGAGATAGAA	0.956
GGGATTTCCT	1.06
TAGTTGTCGC	0.996
GAGGGATCGT	0.978
TCTAGGGACT	0.954
GAACCCCGGG	1.26
ACAAATGAGG	0.962
AGTCAAATAT	1.04
TACTCGTTCA	1.03
TGACCTATGC	1.11
TTAGCATACG	1.78
TTCCCCGGCC	1.53
ACCACAGGCC	1.03
TGCCCACTTT	0.994
ACACGAGGAT	1.08
ATGAGCTTCG	1.01
CTCAGTTGAT	1.06
CCCTCGGCAC	6.68
TAGTAGTAGT	0.957
ATCAATTATA	1
TGAGGAATAA	1.02
CTTTATAGTC	0.97

Sequence	switch fluorescence ratio
GAGGCTGCTA	1.04
TTGCACCTTT	0.989
TGAGTACTGT	1
CTTTGTCAAT	1.21
CCCGGTGGTG	1.04
GAGGGGGCT	0.98
CCTCCTGACT	2.4
ATTGAAAGGG	0.998
CAATATTGAA	1.03
AGGCAATTGC	1
GAGACCAGAA	0.999
AGGCGTGTAA	0.995
AGTCCGACCT	1.16
GAGTATAGAC	1.04
TACCCAGGGT	1.18
CTGGCGTGAC	1.14
GCTAGCGTCA	1.02
ATAAACATGA	0.972
GTGAATTGTA	0.992
